Test results published in publication PMC11306496.
These are yes or no findings as the source states them, for the method shown. In cells and extracts the contact can be indirect. Some entries that bind do so weakly or less than the wild type.

Chains of the proteins cited; added tags and fusions are not shown. Residues count along the entry.
GST-MyoVa medial tail (amino acids 1,110-1,440) (Q9QYF3, residues 1110-1440): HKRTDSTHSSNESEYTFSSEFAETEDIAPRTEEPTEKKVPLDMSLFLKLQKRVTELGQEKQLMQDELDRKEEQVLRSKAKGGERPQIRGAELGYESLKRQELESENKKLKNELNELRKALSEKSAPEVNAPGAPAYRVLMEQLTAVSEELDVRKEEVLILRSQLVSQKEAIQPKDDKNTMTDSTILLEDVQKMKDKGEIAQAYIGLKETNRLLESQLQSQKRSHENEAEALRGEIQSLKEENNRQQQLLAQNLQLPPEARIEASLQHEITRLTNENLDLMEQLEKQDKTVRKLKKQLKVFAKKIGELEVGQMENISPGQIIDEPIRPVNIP
UniProt P70569: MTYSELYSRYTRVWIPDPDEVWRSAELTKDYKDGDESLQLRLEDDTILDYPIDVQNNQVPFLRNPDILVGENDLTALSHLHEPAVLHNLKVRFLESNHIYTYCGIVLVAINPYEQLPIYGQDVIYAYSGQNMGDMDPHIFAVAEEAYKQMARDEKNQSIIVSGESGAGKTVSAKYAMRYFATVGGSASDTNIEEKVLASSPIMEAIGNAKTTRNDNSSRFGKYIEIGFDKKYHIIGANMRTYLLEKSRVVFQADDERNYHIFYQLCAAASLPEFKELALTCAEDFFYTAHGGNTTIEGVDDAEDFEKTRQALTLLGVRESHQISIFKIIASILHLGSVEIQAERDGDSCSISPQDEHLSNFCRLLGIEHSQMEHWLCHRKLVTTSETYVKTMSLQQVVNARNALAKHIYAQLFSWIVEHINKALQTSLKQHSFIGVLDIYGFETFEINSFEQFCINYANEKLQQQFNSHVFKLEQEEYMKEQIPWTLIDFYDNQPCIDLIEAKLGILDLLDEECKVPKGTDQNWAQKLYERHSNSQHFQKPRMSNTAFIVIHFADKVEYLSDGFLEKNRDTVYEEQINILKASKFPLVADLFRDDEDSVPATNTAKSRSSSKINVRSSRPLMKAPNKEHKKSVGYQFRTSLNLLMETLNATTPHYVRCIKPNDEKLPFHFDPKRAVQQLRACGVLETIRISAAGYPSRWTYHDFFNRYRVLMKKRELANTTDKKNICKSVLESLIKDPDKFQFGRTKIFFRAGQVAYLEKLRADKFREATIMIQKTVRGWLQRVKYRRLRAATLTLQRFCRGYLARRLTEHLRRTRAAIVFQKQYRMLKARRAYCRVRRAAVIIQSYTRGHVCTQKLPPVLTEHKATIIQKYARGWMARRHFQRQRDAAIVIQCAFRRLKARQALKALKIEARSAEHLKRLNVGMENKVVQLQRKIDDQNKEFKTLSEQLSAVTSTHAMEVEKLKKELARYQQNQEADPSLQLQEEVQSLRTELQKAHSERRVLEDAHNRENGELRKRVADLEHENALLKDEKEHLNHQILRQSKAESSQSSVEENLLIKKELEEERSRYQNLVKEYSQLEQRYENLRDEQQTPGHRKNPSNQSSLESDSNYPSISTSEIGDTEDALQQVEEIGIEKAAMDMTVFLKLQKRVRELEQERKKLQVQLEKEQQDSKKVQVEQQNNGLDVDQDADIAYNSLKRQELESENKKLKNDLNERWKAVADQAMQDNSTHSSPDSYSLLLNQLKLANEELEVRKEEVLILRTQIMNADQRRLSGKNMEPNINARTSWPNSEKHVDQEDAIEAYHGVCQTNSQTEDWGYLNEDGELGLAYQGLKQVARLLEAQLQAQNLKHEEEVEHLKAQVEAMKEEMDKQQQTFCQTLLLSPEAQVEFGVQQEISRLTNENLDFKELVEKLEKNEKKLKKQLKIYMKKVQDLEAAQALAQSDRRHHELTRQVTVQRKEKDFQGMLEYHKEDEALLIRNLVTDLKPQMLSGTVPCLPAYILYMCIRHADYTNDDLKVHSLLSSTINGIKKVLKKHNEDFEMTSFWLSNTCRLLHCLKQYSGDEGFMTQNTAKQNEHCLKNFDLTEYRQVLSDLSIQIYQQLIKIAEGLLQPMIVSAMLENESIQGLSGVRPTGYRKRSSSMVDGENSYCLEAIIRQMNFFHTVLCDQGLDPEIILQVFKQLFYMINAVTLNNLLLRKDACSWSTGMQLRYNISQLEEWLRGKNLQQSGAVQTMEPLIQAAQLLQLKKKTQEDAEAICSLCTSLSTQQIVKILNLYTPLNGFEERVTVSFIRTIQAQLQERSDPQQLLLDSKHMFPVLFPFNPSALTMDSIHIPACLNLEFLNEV
UniProt Q00960, residues 27-1482: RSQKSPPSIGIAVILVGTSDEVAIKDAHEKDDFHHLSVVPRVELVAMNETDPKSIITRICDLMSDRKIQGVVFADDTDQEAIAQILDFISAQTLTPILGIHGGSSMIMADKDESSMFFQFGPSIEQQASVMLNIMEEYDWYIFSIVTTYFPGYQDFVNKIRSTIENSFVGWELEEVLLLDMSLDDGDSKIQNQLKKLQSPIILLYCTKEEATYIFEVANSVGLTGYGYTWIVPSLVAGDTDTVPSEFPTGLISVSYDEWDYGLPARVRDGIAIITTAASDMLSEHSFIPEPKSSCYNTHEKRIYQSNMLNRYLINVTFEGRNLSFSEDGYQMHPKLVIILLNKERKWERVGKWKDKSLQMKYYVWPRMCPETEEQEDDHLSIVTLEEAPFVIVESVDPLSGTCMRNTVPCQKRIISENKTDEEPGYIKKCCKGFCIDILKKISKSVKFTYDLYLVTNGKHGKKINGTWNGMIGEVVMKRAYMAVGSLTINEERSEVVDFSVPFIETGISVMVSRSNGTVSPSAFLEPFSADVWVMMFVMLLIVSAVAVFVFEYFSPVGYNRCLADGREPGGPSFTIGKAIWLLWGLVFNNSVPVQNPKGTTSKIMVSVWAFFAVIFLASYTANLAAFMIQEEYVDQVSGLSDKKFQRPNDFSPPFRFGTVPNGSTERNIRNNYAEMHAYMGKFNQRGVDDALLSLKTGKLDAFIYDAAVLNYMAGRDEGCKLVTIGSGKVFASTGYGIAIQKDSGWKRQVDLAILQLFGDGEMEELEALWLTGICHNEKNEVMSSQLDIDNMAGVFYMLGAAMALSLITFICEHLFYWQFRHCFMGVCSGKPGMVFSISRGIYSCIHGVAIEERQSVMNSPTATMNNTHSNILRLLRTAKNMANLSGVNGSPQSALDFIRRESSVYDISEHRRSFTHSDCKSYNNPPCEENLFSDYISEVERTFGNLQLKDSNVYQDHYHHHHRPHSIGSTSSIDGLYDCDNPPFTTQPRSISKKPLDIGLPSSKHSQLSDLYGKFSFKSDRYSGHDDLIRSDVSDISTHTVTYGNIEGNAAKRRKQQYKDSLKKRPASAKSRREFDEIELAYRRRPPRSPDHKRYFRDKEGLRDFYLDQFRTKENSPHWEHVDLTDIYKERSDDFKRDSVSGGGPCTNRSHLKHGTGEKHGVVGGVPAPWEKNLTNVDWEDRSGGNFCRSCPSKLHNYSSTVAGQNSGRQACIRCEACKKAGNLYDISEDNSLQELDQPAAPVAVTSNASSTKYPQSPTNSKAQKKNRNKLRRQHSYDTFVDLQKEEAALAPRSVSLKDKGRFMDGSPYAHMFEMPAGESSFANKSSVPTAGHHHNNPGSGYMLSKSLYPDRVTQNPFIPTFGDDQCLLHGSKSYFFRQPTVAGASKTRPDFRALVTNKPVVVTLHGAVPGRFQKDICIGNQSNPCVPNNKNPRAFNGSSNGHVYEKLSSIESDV

How the values were obtained:
[1] = biological target: GST-MyoVa globular tail (amino acids 1,430-1,830) (rat) (UniProt Q9QYF3); assay: pull-down; GST-MyoVa globular tail, medial tail or GST alone on glutathione resin mixed with total proteins from hippocampal slices or cultured hippocampal neurons, 4°C overnight; washed with PBS, 0.1% Triton X-100; immunoblot; only the target purified
[2] = biological target: GST-MyoVa medial tail (amino acids 1,110-1,440) (rat) (UniProt Q9QYF3); assay: as above
[3] = biological target: myosin Va (rat (endogenous in hippocampus)) (UniProt Q9QYF3); assay: co-IP; total rat hippocampal lysates with primary antibody and Protein A/G agarose, 4°C; buffer pH 7.4, 0.05 mol/L HEPES, 0.15 mol/L NaCl, 0.5% NP-40, 1% Triton X-100; non-immune IgG as control; slices untreated or treated with PMA (0.5 umol/L, 10 min) and/or AIP (1 umol/L)
[4] = biological target: myosin Vb (rat (endogenous in hippocampus)) (UniProt P70569); assay: as above
[5] = biological target: NMDA receptor subunit GluN1 (rat (endogenous in hippocampus)) (UniProt P35439); assay: as above

binding [1]	binding [2]	binding [3]	binding [4]	binding [5]	Substance
binds	no binding	binds	no binding	–	NMDA receptor subunit GluN1 (from UniProt P35439 19-938)
–	–	binds	no binding	–	NMDA receptor subunit GluN2B (from UniProt Q00960 27-1482)

Further lines, the substance ahead of its results:

Substance	binding [1]	binding [2]	binding [3]	binding [4]	binding [5]
NMDA receptor subunit GluN2A (from UniProt Q00959 23-1464)	binds	no binding	binds	no binding	–
myosin Va (from UniProt Q9QYF3 1-1828)	–	–	–	–	binds
myosin Vb (from UniProt P70569 1-1846)	–	–	–	–	no binding
